Experimental data: PMC11782079

What was measured:
[1] = target: FaRel2-Y128F (catalytically impaired toxSAS toxin) (Coprobacillus sp. D7); experiment: ITC; ATfaRel2 or variant in the syringe at 200-150 uM, FaRel2 in the cell at 15-20 uM; 25 °C; 25 mM HEPES pH 7.6, 300 mM NaCl, 2 mM MgCl2, 1 mM TCEP
[2] = target: FaRel2-Y128F (catalytically impaired toxSAS toxin) (Coprobacillus sp. D7); experiment: SEC; analytical SEC, 150 ul of each protein at 1 mg/ml; 25 mM HEPES pH 7.6, 200 mM NaCl, 2 mM MgCl2, 1 mM TCEP

## ATfaRel2 A50M (natural protein)
[1]
  Kd: 38 nM

## ATfaRel2 F59A (natural protein)
[1]
  fold decrease in affinity against WT ATfaRel2: 60 fold
  stoichiometry N: 1

## ATfaRel2 I45A (natural protein)
[1]
  fold reduction in affinity against WT ATfaRel2: 25 fold

## ATfaRel2 V43A (natural protein)
[1]
  Kd: 78.8 nM

## ATfaRel2 Y51A (natural protein)
[1]
  fold reduction in affinity against WT ATfaRel2: 43 fold

## ATfaRel2 Y54A (natural protein)
[1]
  fold lower affinity than WT ATfaRel2: 250 fold

## ATfaRel2 antitoxin (wild type) (natural protein)
[2]
  stoichiometry N (ATfaRel2 per FaRel2 (2:2)): 1
[1]
  Kd: 35.2 nM

## ATfaRel2-R47A (natural protein)
[2]
  stoichiometry N (ATfaRel2 per FaRel2 (1:2 A:T)): 0.5
[1]
  KD of the first high-affinity binding event: 35 nM
  KD of the second lower-affinity recognition event: 750 nM
  N of the first high-affinity binding event: 0.4
  N of the second lower-affinity recognition event: 0.8
